The campaign covered roughly 310,000 compounds. About 14,000 (4.5%) showed an effect of 50% or more. The effect is printed as a negative number. This is one part of the list.
target: human ether-à-go-go-related gene (hERG) potassium channel (human, UniProt Q12809); assay: primary screen, population patch clamp on CHO cells stably expressing hERG
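Further: peak tail current of the secondary pulse compared with the same well before compound.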

Sequence of human ether-à-go-go-related gene (hERG) potassium channel (Q12809 whole entry, looked up): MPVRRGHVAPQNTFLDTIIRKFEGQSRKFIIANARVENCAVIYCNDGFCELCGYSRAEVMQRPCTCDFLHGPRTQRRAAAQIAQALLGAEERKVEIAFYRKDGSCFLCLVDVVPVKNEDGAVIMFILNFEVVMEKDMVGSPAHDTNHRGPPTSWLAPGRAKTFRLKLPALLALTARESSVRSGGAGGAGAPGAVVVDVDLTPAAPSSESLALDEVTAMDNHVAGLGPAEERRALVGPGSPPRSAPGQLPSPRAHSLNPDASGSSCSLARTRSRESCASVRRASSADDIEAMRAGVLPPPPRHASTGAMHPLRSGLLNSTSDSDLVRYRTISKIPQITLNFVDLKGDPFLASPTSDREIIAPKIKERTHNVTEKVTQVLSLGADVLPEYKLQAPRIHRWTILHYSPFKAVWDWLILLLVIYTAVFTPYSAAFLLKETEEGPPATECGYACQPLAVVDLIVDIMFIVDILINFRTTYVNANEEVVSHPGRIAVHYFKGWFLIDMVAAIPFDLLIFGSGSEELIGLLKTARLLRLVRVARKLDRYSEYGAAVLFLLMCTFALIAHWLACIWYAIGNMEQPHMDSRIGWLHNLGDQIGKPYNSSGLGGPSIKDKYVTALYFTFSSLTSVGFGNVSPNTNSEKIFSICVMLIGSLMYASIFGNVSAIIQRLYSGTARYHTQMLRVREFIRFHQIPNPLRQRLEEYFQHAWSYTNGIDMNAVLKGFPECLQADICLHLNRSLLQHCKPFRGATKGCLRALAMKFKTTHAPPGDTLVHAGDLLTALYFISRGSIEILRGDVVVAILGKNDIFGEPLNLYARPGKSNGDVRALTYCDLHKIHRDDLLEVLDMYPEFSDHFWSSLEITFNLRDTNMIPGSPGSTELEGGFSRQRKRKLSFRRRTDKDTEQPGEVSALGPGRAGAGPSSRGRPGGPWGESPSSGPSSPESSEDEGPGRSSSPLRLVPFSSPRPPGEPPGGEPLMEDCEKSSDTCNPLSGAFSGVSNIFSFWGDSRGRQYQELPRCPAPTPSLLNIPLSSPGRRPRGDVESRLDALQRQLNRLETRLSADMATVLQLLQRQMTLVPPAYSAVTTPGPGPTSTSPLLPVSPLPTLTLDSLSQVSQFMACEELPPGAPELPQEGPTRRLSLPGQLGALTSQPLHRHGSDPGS

SMILES | hERG current change (%, negative = inhibition) at 10uM [%]
O=C(OCC(=O)C12CC3CC(CC(C3)C1)C2)c1ccc(O)cc1O | 11.5
Cc1ccccc1NC(=S)NC(=O)CCc1ccccc1 | 6.92
CC(C)(CNC(=O)c1sc2cc(Cl)ccc2c1Cl)N1CCOCC1 | -23
O=C(O)/C=C/c1ccc(S(=O)(=O)N2CCN(CCN3C(=O)C4C5C=CC(C5)C4C3=O)CC2)cc1 (stereo not shown) | 10.6
O=C(CCNC(=O)c1ccccc1)Nc1cccnc1 | 26.3
CCN(CC)CCN(C(=O)CCOc1ccccc1)c1nc2ccc(F)cc2s1.Cl | -8.61
COc1ccc(S(=O)(=O)NCC(=O)N(CC(=O)NCC2CCCO2)c2c(C)cccc2C)cc1 (stereo not shown) | -8.06
O=[N+]([O-])c1ccc(Nc2ccc(F)cc2)cc1 | 4.63
Cc1ccc(S(=O)(=O)N2CCN(c3ccccn3)CC2)cc1 | 4.96
CC(=O)OCCC(NS(=O)(=O)OCC(Cl)(Cl)Cl)c1ccccc1 (stereo not shown) | -2.65
CC(=O)NC(=O)c1nnn(Cc2ccccc2)c1NC(C)=O | -10.5
CC1Sc2ccc(S(=O)(=O)N3CCC(C(=O)NCc4ccccc4)CC3)cc2NC1=O (stereo not shown) | -7.45
CN(C)c1cccc(C(=O)NCCCSc2ccccc2)c1 | 4.72
CC(=O)OCc1nc2sc(C)c(C)c2c(=O)[nH]1 | 1.77
Nc1cccnc1-n1nc(C(F)(F)F)cc1C(F)(F)F | 8.5
COc1cccc(-c2nc(CS(=O)(=O)c3ccccc3)no2)c1 | -21.1
Cc1ccc(SCC2(O)CCN(S(=O)(=O)c3ccc(Cl)cc3)CC2)cc1 | -3.52
CNC(=S)N1CCc2ccccc2C1 | -6.86
Cc1cc2nc(Cl)c(Cl)nc2cc1C | -2.57
CCCc1c(C)nc(SCC(=O)C(C)(C)C)nc1OC(=O)N(C)C | -8.88
CC(=O)N(c1ccc(N(C(C)=O)S(=O)(=O)c2cccs2)cc1)S(=O)(=O)c1cccs1 | -21.9
CC1(C(=O)NCCOc2ccccc2Cl)CC1(Cl)Cl (stereo not shown) | 7.02

SMILES | hERG current change (%, negative = inhibition) at 10uM [%]
COc1cc(NS(=O)(=O)c2ccc(N/C=C\C(=O)c3ccc(C)cc3)cc2)nc(OC)n1 | 10.2
COc1ccc(C2CC(c3ccccc3)=NN2C(=O)CSc2nccc(=O)[nH]2)cc1 (stereo not shown) | -8.31
Cc1cc(C(=O)Nc2ccc3c(c2)OCCO3)ccc1[N+](=O)[O-] | 12
COc1cc(/C=C/C(=O)O)ccc1OS(=O)(=O)c1cc(Br)ccc1C | -3.39
C#CCOc1ccc(C2C(C#N)=C(N)Oc3cc(O)ccc32)cc1 (stereo not shown) | -2.71
Cc1cc(C)cc(N(CC(=O)NCc2ccccc2)C(=O)CCC(=O)Nc2ccccn2)c1 | 25.6
COc1cc(S(=O)(=O)Nc2c(C)cc(C)cc2C)ccc1Cl | -1.86
CCOCCn1c(=NC(=O)CSCC(=O)N2CCOCC2)sc2cc(OC)ccc21 | -14.4
O=[N+]([O-])c1ccccc1S(=O)(=O)Oc1ccc(C(=S)N2CCOCC2)cc1 | -75
CN(C)C(=O)c1cn(-c2ccccc2)nc1-c1cccs1 | 14.9
CC1Cc2ccccc2N1C1=CC(=O)CC(C)(C)C1 (stereo not shown) | -9.24
O=c1cc(-c2ccc([N+](=O)[O-])cc2)c2cc3c(cc2[nH]1)OCCO3 | -12
Cc1ccc(N2CCN(/N=C/c3ccccc3[N+](=O)[O-])CC2)cc1 | -0.0251
Cl.OC(COCc1ccc2c(c1)OCO2)CN1CCN(Cc2ccccc2)CC1 (stereo not shown) | -33.1
O=C1OCCC1Sc1nnc(-c2ccc(F)cc2)n1Cc1ccccc1 (stereo not shown) | -22.6
Cc1sc(NC(=O)c2ccco2)c(C(=O)c2ccc(Cl)cc2)c1C | 22.6
O=C(COC(=O)c1c(F)cccc1F)Nc1ccc2[nH]c(=O)[nH]c2c1 | 20.3
COc1ccc(Nc2nc(C(=O)NCCCN3CCOCC3)cs2)cc1 | -17.4
CC(=O)Nc1ccc(S(=O)(=O)NCCC(=O)NCc2ccncc2)cc1 | -45.7
CCOC(=O)c1c(C2COc3ccccc3O2)csc1NC(=O)c1ccccc1 (stereo not shown) | 33.1
COc1cc(C(=O)N2CCN(C(=O)c3ccccc3)CC2)cc(OC)c1OC | 8.49
O=C(NCCCn1ccnc1)c1ccc(NS(=O)(=O)c2ccc(Cl)c(Cl)c2)cc1 | 18.8

SMILES | hERG current change (%, negative = inhibition) at 10uM [%]
COc1ccc(NC(=O)CSc2ccc3nnc(-c4ccccn4)n3n2)cc1OC | -18.1
CCc1ccc(CN(C(=O)COc2c(C)cccc2C)C2CCS(=O)(=O)C2)cc1 (stereo not shown) | -12.2
Cc1onc(-c2ccccc2Cl)c1C(=O)OCc1nnc(-c2ccccc2)o1 | -16.7
COc1ccc(-n2c(SCC(=O)Nc3ccccc3)nc3c(c2=O)SCC3)cc1 | -18.7
CC(=O)c1cccc(N(CC(=O)Nc2ccc(S(=O)(=O)N3CCCC3)cc2)S(C)(=O)=O)c1 | -1.63
CC1(C)CC(=NNC(=O)c2n[nH]c3c2CCC3)CC(C)(C)N1 | 11.5
CCOc1ccc(CCNc2nc3ccccc3n3c(C)nnc23)cc1OCC | 12.3
N#Cc1ccc(OCCN2CCc3ccccc3C2)cc1 | -45.2
COc1ccc(OC)c(S(=O)(=O)Nc2ccc(CC(=O)O)cc2)c1 | -1.5
CCCOC(=O)c1c(-c2ccccc2)nc(CC)c(C(=O)SCC)c1CCC | 20.7
O=C(CSc1nc2ccccc2c(=O)n1-c1ccc(F)cc1)Nc1ccc(C(=O)O)cc1 | 0.205
CCOC(=O)c1nc(NCc2cccnc2)c2ccccc2n1 | -15.3
O=C(COC(=O)c1cc([N+](=O)[O-])ccc1N1CCOCC1)c1ccc(OC(F)F)cc1OC(F)F | -3.18
Cc1cc(C(=O)Nc2ccc(S(=O)(=O)N3CCCC3)cc2)no1 | 23.6
Cc1ccc(/C=N/NC(=O)c2c(C)nc3ccc(Br)cn23)cc1 | 19.2
Oc1ccc(Cl)cc1-c1cc(-c2ccco2)[nH]n1 | 16.2
O=C(/C=C/c1ccccc1)C1=C(O)C(=O)N(CCO)C1c1ccc2c(c1)OCO2 (stereo not shown) | 5.2
COc1ccc(S(=O)(=O)N/N=C(/C)c2ccc(Cl)cc2)cc1 | 7.01
Cc1ccc(/C=C/C(=O)c2ccc(N3CCOCC3)cc2)s1 | 10.5
Cc1ccc(Cl)cc1N1CCN(C(=O)C2CCCN(S(=O)(=O)c3cnc[nH]3)C2)CC1 (stereo not shown) | -11.3
CCCNC(=O)Cn1nc(C(F)(F)F)c2c1CCCC2 | 9.29
C=C1C(C(=O)N2CCOCC2)C1C(=O)N1CCOCC1 (stereo not shown) | 5.16

SMILES | hERG current change (%, negative = inhibition) at 10uM [%]
COc1ccc(CCN2C(=O)CC(Cc3ccc(Br)cc3)C2=O)cc1OC (stereo not shown) | -37.7
Cc1ccc(S(=O)(=O)N(C)c2ccc3sc(C)nc3c2)cc1 | -48.6
Cc1ccc2nc(NC(=O)c3ccc(NS(=O)(=O)c4cccs4)cc3)sc2c1 | 6.32
CCN(c1ccccc1)S(=O)(=O)c1cccc(C(=O)N(C)CCOc2ccccc2)c1 | -3.95
CS(=O)(=O)Nc1ccc(C(=O)Nc2ccc3ccccc3c2)cc1 | 11.2
COc1ccc(-c2[nH]ncc2CN2CCCCCCC2)c(OC)c1 | -54.7
Cn1c(CNC(=O)CNC(=O)c2ccc(F)cc2)cc(=O)n(C)c1=O | -8.46
Br.N=C1CCCN1CC(=O)c1cccs1 | -17.1
CC(C)c1nnc(NC(=O)CCC(=O)NCc2ccc(F)cc2)s1 | 21.3
CC(C)Oc1ccc(/C(O)=C2/C(=O)C(=O)N(CCN3CCNCC3)C2c2ccc(C(C)C)cc2)cc1 (stereo not shown) | 25.3
C=CCn1c(SCC(=O)Nc2cccnc2Cl)nnc1-c1ccc(C(C)(C)C)cc1 | -31.7
O=C(Cc1ccccc1)NNc1ccc2ccccc2c1 | 1.32
Cn1c(-c2cccc3ccccc23)n[nH]c1=S | 21.9
CCc1ccc(C2=NN(CCC(=O)NC(C)CCc3ccccc3)C(=O)CC2)cc1 (stereo not shown) | -27.9
COC(=O)c1ccc(Cn2cc([N+](=O)[O-])cn2)cc1 | -2.83
Cc1ccccc1Nc1nnc(SCc2nc3ccccc3c(=O)[nH]2)s1 | 8.75
COc1ccc(CC(=O)Nc2cccc(-c3cn4ccccc4n3)c2)cc1 | -18.1
COc1cccc(-c2noc(CCCC(=O)N3CCOCC3)n2)c1 | -5.72
COc1ccc(C2SCCN2C(=S)Nc2cccc(C(F)(F)F)c2)cc1 (stereo not shown) | 10.9
O=C(O)CCNS(=O)(=O)c1ccccc1 | -2.72
Cc1ccccc1OCCC(=O)Nc1c(C)n(C)n(-c2ccccc2)c1=O | -14.1
CCCNC(=O)c1cccc(Cn2nc(C)c(Br)c2C)c1 | -6.12

Source: paper PMC4336329 (PLoS ONE, 2015)
